Assay results from patent US20190002581A1 (SUTRO BIOPHARMA, published 2019).

T1: cynomolgus EpCAM (Biacore) (cynomolgus monkey, limits assumed)
T1 construct: Construct used for the cyno Biacore measurements is not described; also called Cyno EpCAM (Biacore); cEpCAM
T1 chain: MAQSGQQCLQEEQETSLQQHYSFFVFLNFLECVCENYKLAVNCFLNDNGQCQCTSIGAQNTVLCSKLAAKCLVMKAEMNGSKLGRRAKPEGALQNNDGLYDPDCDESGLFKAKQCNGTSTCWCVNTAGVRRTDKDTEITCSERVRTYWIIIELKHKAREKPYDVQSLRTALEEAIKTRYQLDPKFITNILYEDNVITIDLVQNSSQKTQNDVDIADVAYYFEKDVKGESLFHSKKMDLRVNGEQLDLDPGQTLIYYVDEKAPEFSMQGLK

T2: cynomolgus EpCAM expressed on stably transfected CHO cells (cynomolgus monkey, UniProt Q1WER1 26-314 (rhesus entry))
T2 construct: also called Cyno EpCAM (CHO)
T2 sequence: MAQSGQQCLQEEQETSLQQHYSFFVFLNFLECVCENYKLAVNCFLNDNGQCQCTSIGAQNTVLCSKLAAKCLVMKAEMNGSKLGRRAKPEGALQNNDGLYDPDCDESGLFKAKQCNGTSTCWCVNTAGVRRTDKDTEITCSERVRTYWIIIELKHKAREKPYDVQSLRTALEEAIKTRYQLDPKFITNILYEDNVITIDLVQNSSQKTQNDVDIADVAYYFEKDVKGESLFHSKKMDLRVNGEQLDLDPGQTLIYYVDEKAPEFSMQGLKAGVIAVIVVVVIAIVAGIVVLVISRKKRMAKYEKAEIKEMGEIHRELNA

T3: human EpCAM expressed on cells (stably transfected CHO cells, HCT-116, JIMT1) (human, UniProt P16422 24-314)
T3 construct: also called Human EpCAM (CHO); Human EpCAM (HCT-116)
T3 sequence: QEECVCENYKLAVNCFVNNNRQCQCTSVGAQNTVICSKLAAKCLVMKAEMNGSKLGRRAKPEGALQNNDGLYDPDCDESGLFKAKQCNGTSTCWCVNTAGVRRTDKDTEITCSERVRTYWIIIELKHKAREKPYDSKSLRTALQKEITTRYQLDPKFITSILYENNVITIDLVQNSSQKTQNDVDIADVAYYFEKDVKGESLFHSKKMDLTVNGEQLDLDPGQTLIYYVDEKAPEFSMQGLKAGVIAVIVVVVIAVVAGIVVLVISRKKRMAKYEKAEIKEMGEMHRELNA

T4: human EpCAM-His (analyte of the Biacore experiments) (human, UniProt P16422 24-265)
T4 construct: also called Human EpCAM (Biacore); hEpCAM
T4 sequence: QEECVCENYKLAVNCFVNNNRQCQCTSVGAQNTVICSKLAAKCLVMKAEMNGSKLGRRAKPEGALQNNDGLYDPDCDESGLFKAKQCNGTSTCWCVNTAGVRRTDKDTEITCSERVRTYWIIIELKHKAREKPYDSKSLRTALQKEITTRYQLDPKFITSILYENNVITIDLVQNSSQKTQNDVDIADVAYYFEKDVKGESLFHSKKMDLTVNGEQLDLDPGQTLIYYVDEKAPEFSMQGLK


What was measured:
[1] = biological target: T1, cynomolgus EpCAM (Biacore); test: SPR (Biacore), cyno EpCAM
[2] = biological target: T2, cynomolgus EpCAM expressed on stably …; test: flow cytometry, CHO cells expressing cyno EpCAM
Description: (§1) CHO-k cells were transfected to stably express EpCAM on the cell surface. CHO parental and stably transfected CHO-EpCAM (human, cynomolgus and mouse EpCAM-expressing cells) cells were washed with DPBS, detached with Accutase™ (BD Biosciences; San Jose, Calif.), and resuspended in ice-cold FACS buffer (DPBS buffer supplemented with 0.5% bovine serum albumin).
(§2) A total of 200,000 cells per 96-well were incubated on ice for 60 mins with 100 nM of test antibodies diluted in FACS buffer. Cells were washed twice with FACS buffer and incubated on ice for 30 mins with R-phycoerythrin AffiniPure F(ab′)₂ fragment, goat anti-Human IgG, Fcγ fragment specific secondary detection antibody (Jackson ImmunoResearch Laboratories, West Grove, Pa.) diluted at 1:200 with FACS buffer. Cells were washed twice with FACS buffer, fixed in 4% paraformaldehyde in PBS (Santa Cruz Biotechnology; Dallas, Tex.) for 20 mins on ice in the dark, washed twice with FACS buffer and analyzed using the BD LSR II Flow Cytometer (BD Biosciences; San Jose, Calif.). Data were analyzed using FlowJo (FlowJo, LLC; Ashland, Oreg.) to determine mean fluorescence intensities. Binding constants were calculated using the statistical software, GraphPad Prism (GraphPad Software; La Jolla, Calif.) using the nonlinear regression equation, one site-specific binding with Hill slope. Secondary antibody alone was used as a control, in addition to measuring non-specific EpCAM antibody binding to CHO parental cells. For some variants, binding to human tumor cells, HCT 116 and JIMT1 cells were also evaluated.

[3] = biological target: T3, human EpCAM expressed on cells (stably …); test: flow cytometry, CHO cells expressing human EpCAM
Description: as §1, §2

[4] = biological target: T4, human EpCAM-His (analyte of the Biacore …); test: SPR (Biacore), scFv-Fc captured on anti-FLAG, human EpCAM-His as analyte, 25 C
Description: Monoclonal Anti-FLAG M2 IgG (Sigma-Aldrich # F9291) was immobilized onto a CMS chip (GE Life Sciences) using amine coupling chemistry (from Amine Coupling Kit, GE Life Sciences). The immobilization steps were carried out at a flow rate of 25 μL/min in 1×HBS-EP+ buffer (GE Life Sciences; 10× Stock diluted before use). The sensor surfaces were activated for 7 min with a mixture of NHS (0.05 M) and EDC (0.2 M). The Anti-Flag M2 IgG was injected over all 4 flow cells at a concentration of 25 μg/mL in 10 mM sodium acetate, pH 4.5, for 7 min. Ethanolamine (1 M, pH 8.5) was injected for 7 min to block any remaining activated groups. An average of 12,000 response units (RU) of capture antibody was immobilized on each flow cell.
Off-rate and Kinetic binding experiments were performed at 25° C. using 1×HBS-EP+ buffer. Test and control antibodies were injected over the Anti-FLAG surface at concentrations of 5-10 μg/mL for 12 seconds at a flow rate of 10 μL/min on flow cells 2, 3 and 4, followed by a buffer wash for 30 seconds at the same flow rate. Kinetic characterization of antibody samples was carried out with a single concentration of antigen (for off-rate ranking) or a 1:2 dilution series of antigen (for kinetic characterization) and 1 injection of 0 nM antigen. After capturing ligand (antibody) on the anti-FLAG surface, the analyte (human EpCAM-His) was bound at 50, 25, 12.5, 6.25 and 0 nM for 180 seconds, followed by a 600 second dissociation phase at a flow rate of 50 μl/min. Between each ligand capture and analyte binding cycle, regeneration was carried out using 2 injections of 10 mM glycine pH 2.0 for 30 seconds at 30 μL/min, followed by a 30 second buffer wash step.
The data were fit with the Biacore T200 Evaluation software, using a 1:1 Langmuir binding model. KD (affinity, nM) was determined as a ratio of the kinetic rate constants calculated from the fits of the association and dissociation phases.

| Kd [1] [nM] | Kd [2] [nM] | Kd [3] [nM] | Kd [4] [nM] | koff [4] [s⁻¹] | kon [4] [M⁻¹ s⁻¹] | Binder |
| --- | --- | --- | --- | --- | --- | --- |
| 8.1 | 0.9 | 1.54 | 6.17 | 0.00158 | 256000 | SRP1557-E07 scFv-Fc antibody (Fc fusion, scFv-Fc format; the entry holds scFv, IgG1 Fc, FLAG and His tags) MEVQLLESGGGLVQPGGSLRLSCAASGFTFSGSSMSWVRQAPGKGLEWVGAIDGGEGSTGYADSVKGRFTISRDNSKNTLYLQMNSLRAEDTAVYYCAKGWHPQTLYDLDYWGQGTLVTVSSGGGGSGGGGSGGGGSEIVLTQSPGTLSLSPGERATMSCRASQVLSSSSLAWYQQKPGQAPRLLIYGASSRATGIPDRFSGSGSGTDFALTISRLEPEDFAVYYCQQRAAPPPTFGQGTKVEIKAAGSDQ[letters of human IgG1 Fc with changes omitted]GSGDYKDDDDKGSGHHHHHH |
| 8.59 | 0.66 | 1.5 | 5.24 | 0.001 | 192000 | SRP1557-F03 scFv-Fc antibody (Fc fusion, scFv-Fc format; the entry holds scFv, IgG1 Fc, FLAG and His tags) MEVQLLESGGGLVQPGGSLRLSCAASGFTFSGSSMSWVRQAPGKGLEWVGAIAGGGGSTGYADSVKGRFTISRDNSKNTLYLQMNSLRAEDTAVYYCAKGWHPQTLYDLDYWGQGTLVTVSSGGGGSGGGGSGGGGSEIVLTQSPGTLSLSPGERATLSCRASQSVKTSDLAWYQQKPGQAPRLLIYGASSRATGIPDRFSGSGSGTDFTLTISRLEPEDFAVYYCQQLVSKPPTFGQGTKVEIKAAGSDQ[letters of human IgG1 Fc with changes omitted]GSGDYKDDDDKGSGHHHHHH |
| 7.52 | 1.2 | 1.17 | 2.75 | 0.00079 | 288000 | SRP1557-E08 scFv-Fc antibody (Fc fusion, scFv-Fc format; the entry holds scFv, IgG1 Fc, FLAG and His tags) MEVQLLESGGGLVQPGGSLRLSCAASGFTFRASSMSWMRQAPGKGLEWVGAIDGGVGSTGYADSVKGRFTISRDNSKNTLYLQMNSLRAEDTAVYYCAKGWHPQTLYDLDYWGQGTLVTVSSGGGGSGGGGSGGGGSEIVLTQSPGTLSLSPGERATLSCRASQGDSSSVLAWYQQKPGQAPRLLIYGASSRATGIPDRFSGSGSGTDFTLTISRLEPEDFAVYYCQQLVPSPPTFGQGTKVEIKAAGSDQ[letters of human IgG1 Fc with changes omitted]GSGDYKDDDDKGSGHHHHHH |
| 4.41 | 1.79 | 1.79 | 3.5 | 0.00123 | 351000 | SRP1557-G01 scFv-Fc antibody (Fc fusion, scFv-Fc format; the entry holds scFv, IgG1 Fc, FLAG and His tags) MEVQLLESGGGLVQPGGSLRLSCAASGFTFSVTSMSWMRQAPGKGLEWVGAIAGGEGSTGYADSVKGRFTISRDNSKNTLYLQMNSLRAEDTAVYYCAKGWHPQTLYDLDYWGQGTLVTVSSGGGGSGGGGSGGGGSEIVLTQSPGTLSLSPGERATMSCRASQVLSSSSLAWYQQKPGQAPRLLIYGASSRATGIPDRFSGSGSGTDFTLTISRLEPEDFAVYYCQQLVTSPPTFGQGTKVEIKAAGSDQ[letters of human IgG1 Fc with changes omitted]GSGDYKDDDDKGSGHHHHHH |
| 29.1 | 0.9 | 1.91 | 1.49 | 0.000254 | 170000 | SRP1557-F02 scFv-Fc antibody (Fc fusion, scFv-Fc format; the entry holds scFv, IgG1 Fc, FLAG and His tags) MEVQLLESGGGLVQPGGSLRLSCAASGFTFRGSSMSWVRQAPGKGLEWVGAIDGGEGSTGYADSVKGRFTISRDNSKNTLYLQMNSLRAEDTAVYYCAKGWHPQTMYNLDYWGQGTLVTVSSGGGGSGGGGSGGGGSEIVLTQSPGTLSLSPGERATLSCRASQSVSSSYLAWYQQKPGQAPRLLIYGASSRATGIPDRFSGSGSGTDFTLTISRLEPEDFAVYYCQQLFNSPPTFGQGTKVEIKAAGSDQ[letters of human IgG1 Fc with changes omitted]GSGDYKDDDDKGSGHHHHHH |
| 162 | 1.38 | 1.91 | 6.91 | 0.00175 | 254000 | SRP1557-G03 scFv-Fc antibody (Fc fusion, scFv-Fc format; the entry holds scFv, IgG1 Fc, FLAG and His tags) MEVQLLESGGGLVQPGGSLRLSCAASGFTFGGSSMSWVRQAPGKGLEWVGAIGGGEGYTGYADSVKGRFTISRDNSKNTLYLQMNSLRAEDTAVYYCAKGWHPQTLYDLDYWGQGTLVTVSSGGGGSGGGGSGGGGSEIVLTQSPGTLSLSPGERATLSCRASQSVHSSYLAWYQQKPGQAPRLLIYGASSRATGIPDRFSGSGSGTDFTLTISRLEPEDFAVYYCQQLLSSPPTFGQGTKVEIKAAGSDQ[letters of human IgG1 Fc with changes omitted]GSGDYKDDDDKGSGHHHHHH |
| 15.2 | 1.62 | 2.47 | 6.7 | 0.000939 | 140000 | SRP1557-G06 scFv-Fc antibody (Fc fusion, scFv-Fc format; the entry holds scFv, IgG1 Fc, FLAG and His tags) MEVQLLESGGGLVQPGGSLRLSCAASGFTFSGFSMSWVRQAPGKGLEWVGAIDGGEGSTGYADSVKGRFTISRDNSKNTLYLQMNSLRAEDTAVYYCAKGWHPQTLYHLDYWGQGTLVTVSSGGGGSGGGGSGGGGSEIVLTQSPGTLSLSPGERATLSCRASQSIPSSYLAWYQQEPGQAPRLLIYGASSRATGIPDRFSGSGSGTDFTLTISRLEPEDFAVYYCQQLATSPPTFGQGTKVEIKAAGSDQ[letters of human IgG1 Fc with changes omitted]GSGDYKDDDDKGSGHHHHHH |
